This is a selection; strong and weak results do not stand in their true shares. The list includes weakly bound sequences.
Key:
Experiment in all cases: protein-binding microarray (PBM)
Details in all cases: PBM: ~300 nM protein, 6 mM HEPES pH 7.8, 80 mM KCl, 0.5 mM EDTA, 0.5 mM EGTA, 6% glycerol, 35 ng/ul poly-dIdC, 1% milk, 1 h, room temperature; Ap Aiptasia and Nv Nematostella (sea anemones) / Co Capsaspora / Aq Amphimedon (sponge) / Dm Drosophila / Hu human; RHD is the Rel homology domain; high values mean tight binding; most listed sequences are background and not binding sites; double strand, one strand shown
[1] = molecular target: T1, GST-Ap-NF-kB RHD (UniProt A0A913YAJ5)
T1 sequence: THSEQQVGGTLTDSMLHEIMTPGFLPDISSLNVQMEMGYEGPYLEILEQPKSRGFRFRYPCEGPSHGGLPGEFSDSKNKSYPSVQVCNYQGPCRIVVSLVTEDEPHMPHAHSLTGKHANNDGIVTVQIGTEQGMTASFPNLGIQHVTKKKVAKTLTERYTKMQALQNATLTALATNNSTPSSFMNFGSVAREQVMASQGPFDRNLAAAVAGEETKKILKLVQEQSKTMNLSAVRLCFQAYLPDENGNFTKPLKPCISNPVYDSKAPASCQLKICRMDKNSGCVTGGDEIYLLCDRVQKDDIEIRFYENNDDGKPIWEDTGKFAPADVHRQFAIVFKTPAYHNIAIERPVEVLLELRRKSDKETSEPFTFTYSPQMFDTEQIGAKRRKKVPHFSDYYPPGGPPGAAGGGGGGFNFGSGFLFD

[2] = molecular target: T2, GST-Nv-NF-kB (Cys allele) (UniProt E5G601)
T2 sequence: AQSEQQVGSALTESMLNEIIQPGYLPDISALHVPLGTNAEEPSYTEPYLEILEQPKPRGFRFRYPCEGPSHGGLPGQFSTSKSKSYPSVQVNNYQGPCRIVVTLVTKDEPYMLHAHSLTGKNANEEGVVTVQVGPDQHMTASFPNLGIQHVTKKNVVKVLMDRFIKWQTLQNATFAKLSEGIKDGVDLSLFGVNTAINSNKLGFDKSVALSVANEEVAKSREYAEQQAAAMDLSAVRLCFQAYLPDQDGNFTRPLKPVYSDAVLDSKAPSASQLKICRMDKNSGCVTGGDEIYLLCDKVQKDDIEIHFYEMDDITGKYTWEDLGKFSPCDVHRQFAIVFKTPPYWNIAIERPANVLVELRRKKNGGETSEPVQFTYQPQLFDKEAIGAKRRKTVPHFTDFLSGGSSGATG

[3] = molecular target: T3, GST-Co-NF-kB (UniProt F1ARL5)
T3 sequence: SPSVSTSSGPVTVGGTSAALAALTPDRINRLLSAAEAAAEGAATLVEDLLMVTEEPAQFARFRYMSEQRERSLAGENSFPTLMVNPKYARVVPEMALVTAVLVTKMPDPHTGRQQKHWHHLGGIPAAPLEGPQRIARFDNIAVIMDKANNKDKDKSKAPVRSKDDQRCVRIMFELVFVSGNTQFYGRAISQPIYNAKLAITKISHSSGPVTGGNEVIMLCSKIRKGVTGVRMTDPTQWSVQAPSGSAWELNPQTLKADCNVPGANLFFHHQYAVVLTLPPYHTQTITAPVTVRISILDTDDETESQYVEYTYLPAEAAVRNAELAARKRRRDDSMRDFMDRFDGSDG

[4] = molecular target: T4, GST-Dm-Relish (UniProt Q94527)
T4 sequence: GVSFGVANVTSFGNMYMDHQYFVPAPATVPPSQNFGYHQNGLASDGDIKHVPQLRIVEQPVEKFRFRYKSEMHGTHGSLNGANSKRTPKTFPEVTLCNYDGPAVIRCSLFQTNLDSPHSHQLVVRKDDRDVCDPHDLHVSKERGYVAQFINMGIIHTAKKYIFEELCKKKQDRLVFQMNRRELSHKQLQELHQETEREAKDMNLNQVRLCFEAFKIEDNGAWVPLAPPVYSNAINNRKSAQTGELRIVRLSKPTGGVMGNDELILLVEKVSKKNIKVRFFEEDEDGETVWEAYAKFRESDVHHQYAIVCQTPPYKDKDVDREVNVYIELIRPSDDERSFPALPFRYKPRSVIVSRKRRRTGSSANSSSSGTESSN

Row | Sequence | binding signal [1] [z-score] | binding signal [2] [z-score] | binding signal [3] [z-score] | binding signal [4] [z-score]
1 | CCGATTAACATCAGCAACCCCCCTGATGTTAATCGGGTCTTGATTCGCTTGACGCTGCTG | 5.04 | 3.58 | 2.82 | 6.14
2 | CCGATTAACATCAGGCAATGCCCTGATGTTAATCGGGTCTTGATTCGCTTGACGCTGCTG | -0.426 | 0.556 | -0.734 | -0.774
3 | CCGATTAACATCACCCCTCCCCGTGATGTTAATCGGGTCTTGATTCGCTTGACGCTGCTG | 5.01 | 3.48 | 4.15 | 3.47
4 | CCGATTAACATCACGGGAATGCCTGATGTTAATCGGGTCTTGATTCGCTTGACGCTGCTG | 1.93 | 2.46 | 1.56 | 3.11
5 | CCGATTAACATCATCCGCGGGAGTGATGTTAATCGGGTCTTGATTCGCTTGACGCTGCTG | 1.05 | 0.45 | 1.38 | 0.151
6 | CCGATTAACATCATGAAGACCCCTGATGTTAATCGGGTCTTGATTCGCTTGACGCTGCTG | 2.6 | 1.18 | 0.156 | 1.35
7 | CCGATTAACATCAAGAAATTCCTTGATGTTAATCGGGTCTTGATTCGCTTGACGCTGCTG | -0.449 | 0.694 | -0.114 | 0.963
8 | CCGATTAACATCAAGTACTTTCCTGATGTTAATCGGGTCTTGATTCGCTTGACGCTGCTG | -0.344 | 0.246 | -0.199 | 5.26
9 | CCGATTAACATCAGGAAATGTCCTGATGTTAATCGGGTCTTGATTCGCTTGACGCTGCTG | -0.416 | -0.442 | -0.501 | -0.21
10 | CCGATTAACATCACGGTCTTTCCTGATGTTAATCGGGTCTTGATTCGCTTGACGCTGCTG | -0.0321 | 0.0435 | -0.339 | 0.699
11 | CCGATTAACATCAAGGAGTTTCCTGATGTTAATCGGGTCTTGATTCGCTTGACGCTGCTG | 0.0302 | -0.138 | 0.0583 | 0.897
12 | CCGATTAACATCACACCCCAACATGATGTTAATCGGGTCTTGATTCGCTTGACGCTGCTG | 1.38 | 0.335 | 2.16 | 0.447
13 | CCGATTAACATCAGAAATTGCCCTGATGTTAATCGGGTCTTGATTCGCTTGACGCTGCTG | 0.63 | 1.33 | 0.272 | 0.377
14 | CCGATTAACATCACGGACTGCCCTGATGTTAATCGGGTCTTGATTCGCTTGACGCTGCTG | 0.443 | 0.0716 | -0.584 | 0.204
15 | CCGATTAACATCACGGAAAGTACTGATGTTAATCGGGTCTTGATTCGCTTGACGCTGCTG | 0.343 | -0.496 | 0.77 | 4.11
16 | CCGATTAACATCAAGTTCCCCCCTGATGTTAATCGGGTCTTGATTCGCTTGACGCTGCTG | 7.37 | 6.39 | 10.1 | 6.95
17 | CCGATTAACATCACGGAGATTCCTGATGTTAATCGGGTCTTGATTCGCTTGACGCTGCTG | 0.00102 | 0.168 | 0.173 | 0.486
18 | CCGATTAACATCAGGGAATCCACTGATGTTAATCGGGTCTTGATTCGCTTGACGCTGCTG | 3.05 | 3.31 | 2.25 | 7.85
19 | CCGATTAACATCAGGAAAAGTACTGATGTTAATCGGGTCTTGATTCGCTTGACGCTGCTG | -0.0632 | -0.259 | 0.334 | 4.26
20 | CCGATTAACATCACTAAAATTCCTGATGTTAATCGGGTCTTGATTCGCTTGACGCTGCTG | 0.381 | 0.28 | 0.642 | 0.634
21 | CCGATTAACATCACGGAACTTCCTGATGTTAATCGGGTCTTGATTCGCTTGACGCTGCTG | 0.181 | -0.052 | 0.00121 | 0.329
22 | CCGATTAACATCAGGAACTGCCCTGATGTTAATCGGGTCTTGATTCGCTTGACGCTGCTG | 0.69 | 0.321 | 0.122 | -0.47
23 | CCGATTAACATCAGGAGATTCCATGATGTTAATCGGGTCTTGATTCGCTTGACGCTGCTG | -0.0423 | -0.202 | -0.4 | 0.459
24 | CCGATTAACATCAAGGATTGCCCTGATGTTAATCGGGTCTTGATTCGCTTGACGCTGCTG | 0.6 | 0.299 | 0.277 | 0.595
25 | CCGATTAACATCACGGATTGCCCTGATGTTAATCGGGTCTTGATTCGCTTGACGCTGCTG | 0.297 | -0.512 | 0.124 | -0.115
26 | CCGATTAACATCAGGACATTCCATGATGTTAATCGGGTCTTGATTCGCTTGACGCTGCTG | -0.163 | -0.244 | 0.116 | 0.35
27 | CCGATTAACATCAGGTTATTCCATGATGTTAATCGGGTCTTGATTCGCTTGACGCTGCTG | 0.338 | 0.591 | -0.232 | 2.41
